The densities may have been worked out from excess volumes.
Assay: xn = mol fraction of the nth substance listed
Settings: 101 kPa

CCCC[n+]1ccn(C)c1.F[B-](F)(F)F + CN(C)C=O
mass density [kg/m3]
Settings	293.15 K	298.15 K	303.15 K	308.15 K	313.15 K	318.15 K	323.15 K
x1 = 0.0817	996.5	993.6	989.5	985.3	981.4	–	–
x1 = 0.1602	1036.5	1033.1	–	1024.8	–	1016.5	1012.5
x1 = 0.2406	1067.2	1064.7	1060.6	1056.4	1052.3	1048.2	1044.1
x1 = 0.3472	1100.1	1097.2	–	–	1085.2	–	–
x1 = 0.4392	1122.3	1119.5	1115.6	–	1107.8	–	1100.1
x1 = 0.5598	1145.8	1142.8	–	1135.2	1131.5	–	1124.1
x1 = 0.6532	1160.9	1157.7	1154	1150.3	1146.7	1143	–
x1 = 0.7428	1173.4	1170.2	1166.5	1162.8	1159.3	1155.7	1152.3
x1 = 0.8382	1185.3	1181.9	1178.3	1174.7	1171.2	1167.6	1164.2
x1 = 0.9424	1196.8	1193.2	1189.6	1186.1	1182.6	1179.1	1175.6
x1 = 1	1202.8	1199.2	1195.6	1192	1188.5	1184.9	1181.4

CN(C)C=O + CCCC[n+]1ccn(C)c1.F[B-](F)(F)F
x2 = 0
Settings	mass density [kg/m3]
293.15 K	948.5
298.15 K	943.7
303.15 K	938.9
308.15 K	934.1
313.15 K	929.3
318.15 K	924.5
323.15 K	919.7

Reference: a compilation of properties of binary mixtures (doi:10.1007/s10953-020-00967-3)
